± gives the standard deviation of the averaged measurements. The list shows a part of the results.
tested on: PfAP2-G AP2 domain (GST-tagged); experiment: gcPBM binding intensity (ln(normalized median fluorescence intensity)); higher = stronger DNA binding
Outline: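 For binding intensity, the highest Masliner-normalised natural-log median intensity across replicate spots of either probe orientation was taken. Protein bound to the array was stained with Alexa488 anti-GST antibody and scanned at 488 nm. The protein, GST-tagged P. falciparum DNA-binding domains from E. coli at about 25 μg on average, had been applied for 1 h to an Agilent 4 × 180k array of primer-extended double-stranded 36-bp intergenic genomic probes and negative controls.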

Sequence | gcPBM binding intensity (ln)
TTTAAAATAAATTAATAGAACAAAAATAAAATGATT [GTGCAC_negctrl_site375] | 9.89
AATAATAAAAAAAGTGCACACACATAATATATATAT [CACACA_site9100] | 10.7 ± 0.52
TATAAAAAAATAAAAGGAATATACTTGCAAAGGGTA [CACACA_negctrl_site1438] | 10.14 ± 0.014
TTTCAAATGATTAAGTGTACATGTTTGCTTGCTCTT [XGTACX_site4697] | 11.3 ± 0.82
TTTTTTTTTGTTATGTTGCACTTTGCCATATTATTA [GTGCAC_site9844] | 10.1 ± 0.15
AATATAAAAAATAATACACACACATGGCGACAAAAT [CACACA_site8765] | 10.3 ± 0.16
ATGTAAGTAATTATCTGTACACATAATATATATATA [XGTACX_site2618] | 11.5 ± 1
CACATAAATAATTAAACACACATTGTTCTAGACAAT [CACACA_site2378] | 9.95 ± 0.16
TTTGAGTTACTATTCACACAAAATGGATAAATTAAT [CACACA_site5626] | 10.1 ± 0.13
TACATATTACTATTCAGTACATATTTTTTTTTCATT [XGTACX_site7468] | 10.9 ± 0.67
TATATAGGTATATATACACACAACGGTTATAAATAT [CACACA_site4759] | 10.03 ± 0.035
TATAAAGACACGAAAACACACATATGTAAATATATA [CACACA_site8056] | 10.1 ± 0.12
AGGATAAAAGTTATGGTGCATTAACCTATTTAAATA | 10.1 ± 0.14
TAGTTTTGAAAACAAACACACAAAAAAAAAAAAAAA [CACACA_site1692] | 9.88 ± 0.52
ATACGATTGCAGTCAAAAAGGAAAATATAAAAAAAG [XGTACX_negctrl_site124] | 10.2 ± 0.25
AATATTTATAAATTTACACACACACCCGTGAACATA [CACACA_site1910] | 10.3 ± 0.11
TTATCATTTTAAATCACACACATATATAAATATGTA [CACACA_site7359] | 9.735 ± 0.035
TCCTCATTTTATCATACACACTTGTTTATATGTGTG [CACACA_site6548] | 10.12 ± 0.064
TATATATATATAATTTGTACACACAAATATGCATAT [XGTACX_site7297] | 11.1 ± 0.57
ATATATAATAATTGTAGTACAATTAATAAATAAAAT [XGTACX_site3840] | 11.5 ± 0.92
ATAAAATAAAAACATGCACACTTTATTTTTTTTAAG [CACACA_site5545] | 10.03 ± 0.021
AAAGAAGGGGGGGGAAAAAAAAATAAAAGAGGAAAA [XGTACX_negctrl_site92] | 11 ± 0.77
ATATATATGTATGTATATATATATATATATGTTTGA [CACACA_negctrl_site107] | 9.63

Sequence | gcPBM binding intensity (ln)
TTTTTTTTTCTGTATACACACAAAATTTATTTTTTA [CACACA_site2873] | 10.07 ± 0.064
TTAATAACGTAATGTAAATGTTTCATACCCTTTTTT [CACACA_negctrl_site988] | 9.955 ± 0.021
TGGGGTATTAAAAAAACACACAAAAAAAATATAAAG [CACACA_site1915] | 10.3 ± 0.36
AAAATGTATATTGGCGCATGTAAACAAATACTATAC [TGCATGCA_site385] | 10.08 ± 0.014
TCAAAATGTGACATAAAAGAAAAAAAAAAAAAAAAA [CACACA_negctrl_site1092] | 9.78 ± 0.42
GATAATAATAAGTGTACACATATATTTAGAAGAGTA [CACACA_site4245] | 11.5 ± 0.85
TGATATTATAGATATACACACATGTATGTATTTATA [CACACA_site6758] | 9.98 ± 0.16
ATACTAACATTTTTTTGTACATATAACTATAAAATA [XGTACX_site1033] | 10.9 ± 0.49
AAGGTAAACGGACACACACACATACAAAAAAAAAAA [CACACA_site5961] | 11.1 ± 0.82
AAATTTAGTAAAAAATGTACGTAAAATGTAAAATAT [XGTACX_site1314] | 11.5 ± 0.73
TATATATTATATAAATAAATAAATATATATATTTAT [TGCATGCA_negctrl_site270] | 9.585 ± 0.049
AATGATTTTGATTAACGTACGTACAAATATATATAT [XGTACX_site6604] | 11.5 ± 0.82
TATTTTACGACATACCAAAAAAAAAAAAAAAAAATA [CACACA_negctrl_site1254] | 10 ± 0.38
AAAAAAAAAAGACACACACACATAGACCTCCAATAG [CACACA_site7646] | 10.5 ± 0.11
TAAATCCGCAGGCACACACACATATTAATAAAAAAA [CACACA_site3991] | 10.2 ± 0.38
AATGTTAAACTATGATGTACGGTTAAAAATATAATT [XGTACX_site893] | 10.7 ± 0.42
AGACCTATGATATATACACACATATAAATAAATATA [CACACA_site6725] | 9.945 ± 0.035
TTATTAAATATAAATATGTATCTTTTATGTTATATT [CACACA_negctrl_site306] | 9.61 ± 0.085
TTTTTTAAATTTAAAGTGCATTATTATATATTTGTA | 10 ± 0.18
AAAAAAGAAATAAGGATACACACTATTGATAAAAGT [CACACA_site272] | 10.12 ± 0.064
CCAGTGTGCACCTTGCGTACATATTAAATTAATTAA [XGTACX_site3729] | 11.5 ± 0.96
TTTATTTTTTGAAACACACACAAAAAAAATGATACA [CACACA_site1881] | 10.3 ± 0.4

From the supplement of paper PMC11417369
